Data as given in PubChem BioAssay AID1347165 (National Center for Advancing Translational Sciences (NCATS), 2019).
The campaign covered roughly 220,000 compounds. About 5,700 (2.6%) were called active. The inconclusive results got no clear call from the source; some entries with a clear call stand among them for comparison. Calls follow the shape of the dose curve; as a rule, active = well fitted inhibition curve with a large enough effect; inconclusive = small, poorly fitted or top-dose-only effect; inactive = no such curve, though single readings can be large or run the other way. Potencies of inconclusive entries are doubtful fits and often do not repeat.

Each compound was assayed against Lysine-specific demethylase 5B (Homo sapiens) (UniProt Q9UGL1) (assay: Primary screen for KDM5B Histone Demethylases FDH-coupled qHTS). Settings: FDH-coupled NADH fluorescence (FDH is formaldehyde dehydrogenase); activity change, negative = inhibition: at 57.7 µM (top of the series) unless noted.
UniProt Q9UGL1, sequence (Q9UGL1 whole entry, looked up): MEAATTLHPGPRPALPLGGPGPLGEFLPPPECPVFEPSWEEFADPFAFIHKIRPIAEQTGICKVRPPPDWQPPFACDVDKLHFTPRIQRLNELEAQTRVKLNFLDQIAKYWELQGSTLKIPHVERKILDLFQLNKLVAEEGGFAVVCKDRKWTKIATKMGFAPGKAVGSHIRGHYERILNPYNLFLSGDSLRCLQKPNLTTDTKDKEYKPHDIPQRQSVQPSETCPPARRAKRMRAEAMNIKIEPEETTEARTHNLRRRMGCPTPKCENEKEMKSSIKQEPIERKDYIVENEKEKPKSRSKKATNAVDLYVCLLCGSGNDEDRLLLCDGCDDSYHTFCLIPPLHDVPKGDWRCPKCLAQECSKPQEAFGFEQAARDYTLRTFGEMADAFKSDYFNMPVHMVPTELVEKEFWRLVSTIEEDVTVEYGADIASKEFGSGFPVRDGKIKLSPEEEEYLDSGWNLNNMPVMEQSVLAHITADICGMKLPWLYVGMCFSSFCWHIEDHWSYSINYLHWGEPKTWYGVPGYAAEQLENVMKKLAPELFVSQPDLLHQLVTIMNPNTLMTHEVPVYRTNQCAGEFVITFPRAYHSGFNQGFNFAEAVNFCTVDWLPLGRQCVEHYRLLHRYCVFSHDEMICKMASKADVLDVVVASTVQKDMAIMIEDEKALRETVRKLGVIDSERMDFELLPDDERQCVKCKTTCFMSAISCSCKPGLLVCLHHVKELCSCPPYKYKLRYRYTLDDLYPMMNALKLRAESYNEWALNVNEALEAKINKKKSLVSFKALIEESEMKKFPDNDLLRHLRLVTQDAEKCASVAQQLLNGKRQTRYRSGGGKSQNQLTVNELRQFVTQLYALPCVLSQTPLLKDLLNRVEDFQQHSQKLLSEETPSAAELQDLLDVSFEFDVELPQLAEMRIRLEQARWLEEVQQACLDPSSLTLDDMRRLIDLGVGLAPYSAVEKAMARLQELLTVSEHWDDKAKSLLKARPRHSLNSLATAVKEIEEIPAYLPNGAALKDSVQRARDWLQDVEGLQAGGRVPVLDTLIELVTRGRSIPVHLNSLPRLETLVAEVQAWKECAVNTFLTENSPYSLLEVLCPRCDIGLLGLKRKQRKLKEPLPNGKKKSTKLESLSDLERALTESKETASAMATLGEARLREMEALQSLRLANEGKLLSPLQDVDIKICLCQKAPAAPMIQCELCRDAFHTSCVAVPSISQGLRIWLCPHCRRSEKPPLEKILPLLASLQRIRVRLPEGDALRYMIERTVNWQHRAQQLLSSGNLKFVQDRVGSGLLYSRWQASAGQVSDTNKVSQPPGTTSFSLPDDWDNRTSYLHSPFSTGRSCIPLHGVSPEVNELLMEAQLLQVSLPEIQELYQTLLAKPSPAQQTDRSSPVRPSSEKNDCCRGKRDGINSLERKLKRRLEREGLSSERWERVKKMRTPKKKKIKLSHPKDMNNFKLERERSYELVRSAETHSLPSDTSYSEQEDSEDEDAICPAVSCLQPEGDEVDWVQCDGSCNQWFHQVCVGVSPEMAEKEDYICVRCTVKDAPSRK
Summary of the method: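 qHTS format, multiple compound concentrations. Buffer 50 mM HEPES pH 7.5/0.01% Tween-20; 200 nM KDM5BΔAP final; 10 min compound preincubation; substrate-mix levels 12.5 µM peptide, 25 µM α-KG, 0.25 mM NAD⁺; 30 min RT; ΔRFU.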
Also: nearly all actives have a fitted effect of over 70% in size.
For activity change, negative = inhibition in this document: 0% is about no effect.
Potency is read from the fitted curve at half-maximal effect; tags tell the direction and shape of the fitted curve.

SMILES | Potency | activity change, negative = inhibition
CCN(CC)C(=O)CN(C)Cc1ccc(=O)n(CC)c1 | inconclusive: 14.1 µM [inhibitor, partial curve] | –
CCCCc1cc(=O)oc2cc(OC(C)C(=O)O)ccc12 (configuration not stated) | inconclusive: 25.1 µM [inhibitor, partial curve, poor fit] | –
CCS(=O)(=O)c1ncc(N(Cc2ccco2)Cc2ccccc2F)c(C(=O)Nc2cccc(Cl)c2)n1 | inconclusive: 31.6 µM [inhibitor, single point] | –
CN1CCC2(C1)CN(CC1CCOCC1)c1ccc(C(=O)NCCc3ccccc3)cc12 (configuration not stated) | active: 31.6 µM | –
CNC(=O)c1ccc(-c2cc(C(F)(F)F)nn2C)s1 | inconclusive: 25.1 µM [inhibitor, partial curve, poor fit] | –
Cc1ccc(NC(=O)c2ccc(Oc3nccnc3N3CCCCC3)cc2)cc1C | inconclusive: 25.1 µM [inhibitor, partial curve, poor fit] | –
O=C(NCc1cccc(C(F)(F)F)c1)C1CN(c2cccc(Cl)c2)C(=O)N1 (configuration not stated) | – | inactive: -8.37%
COc1ccc(CNC(=O)c2nc3nc(-c4ccccc4)c(Cl)cc3n2C)cc1OC | active: 35.5 µM | –
CN(C)CC(=O)N1C[C@@H]2C[C@H](C1)c1ccc(-c3ccccc3CN3CCOCC3)c(=O)n1C2 | active: 17.8 µM | –
Cc1noc(-c2cccn3c(CNC(=O)c4ccc(F)c(F)c4)nnc23)n1 | inconclusive: 14.1 µM [inhibitor, partial curve, poor fit] | –
COCCN1CCCCCC(O)c2cc(C(=O)NCCc3c[nH]c4ccccc34)ccc21 (configuration not stated) | inconclusive: 14.1 µM [inhibitor, partial curve, poor fit] | –
CC1=C[C@@H](CN2CCN(C)CC2)[C@H](C(C)C)C[C@H]1Cc1nnc(-c2ccc(C)cc2)o1 | inconclusive: 20 µM [inhibitor, partial curve] | –
Cc1cc(NCc2cncn2CC(C)C)n2nc(C)cc2n1 | inconclusive: 15.8 µM [inhibitor, partial curve] | –
Cc1ccc(CN2C(=O)[C@@H]3C[C@@H](O)CN3C3(CN(Cc4ccc(F)cc4)C3)C2=O)o1 | inconclusive: 39.8 µM [inhibitor, partial curve, poor fit] | –
O=C(C1NCCc2[nH]cnc21)N1CCc2c(nc(CC3CC3)[nH]c2=O)C1 (configuration not stated) | inconclusive: 7.94 µM [inhibitor, partial curve] | –
CCn1c(CSc2n[nH]c(-c3ccccc3)n2)nc2cc(S(=O)(=O)N3CCCCC3)ccc21 | – | inactive: -7.64%
CN1CCN(c2ncnc3sc4c(c23)CCN(Cc2ccco2)C4)CC1 | inconclusive: 20 µM [inhibitor, partial curve, poor fit] | –
